# Reference: patent publication US20090099029
# Target: Bovine, dephosphorylated, Myelin Basic Protein (MBP) (UniProt P02687)
# Sequence of UniProt P02687 (P02687 whole entry): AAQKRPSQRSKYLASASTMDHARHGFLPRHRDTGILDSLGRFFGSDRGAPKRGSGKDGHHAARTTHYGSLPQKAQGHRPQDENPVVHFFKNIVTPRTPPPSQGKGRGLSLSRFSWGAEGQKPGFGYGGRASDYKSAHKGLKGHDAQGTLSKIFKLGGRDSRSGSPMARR
row,Substance,MBP Kinase Activity
1,RPS6KA5(MSK1) (sequence not shown),Weak
2,FGFR1 (sequence not shown),Strong
3,KDR(VEGFR2) (sequence not shown),Strong
